# The whole screen tested about 310,000 compounds, of which about 11,000 (3.5%) were called active. This list was built around the results that the source calls inconclusive (neither active nor inactive); the mix of calls is not that of the screen. Calls come from the whole dose curve; as a rule, active = well fitted inhibition curve with a large enough effect; inconclusive = small, poorly fitted or top-dose-only effect, or effect the other way; inactive = flat fitted curve, though single readings scatter. No potency is given beside an inconclusive call; the fits are too rough.
# Assay: VP16 counterscreen qHTS for inhibitors of ROR gamma transcriptional activity;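 note: Gal4-VP16 expression switched on by copper sulfate through the metallothionein promoter; nearly all actives have a fitted effect of over 50% in size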
# Conditions: Drosophila S2 Gal4-VP16 UAS-luciferase, luminescence, 20 h; activity, negative = inhibition: at 53.6 µM (top of the series)
# % is set by controls: 0 for no effect and ±100 for the full control effect; potency is the fitted concentration of half-maximal effect; tags give direction and shape of the fitted curve.
SMILES,Potency,"activity, negative = inhibition"
COCCNC(=S)N/N=C(\C)c1ccc2cc(OC)ccc2c1,active: 1 µM,
CC(=O)N/N=C/c1cc(C)n(-c2ccc(Br)cc2)c1C,,inactive: -0.764%
Cc1cc(=O)n2cc(-c3ccccc3)nc2[nH]1,"inconclusive [inhibitor, partial curve]",
CCCn1c(CNc2ccc(Br)cc2)nc2ccccc21,"inconclusive [inhibitor, single point]",
Cc1nc2ccccc2n1CC(=O)NC(C)C1CC2CCC1C2 (configuration not stated),"inconclusive [inhibitor, single point]",
COc1ccc(-c2cc(-c3ccc(C)cc3)n[nH]2)c(O)c1,active: 20 µM,
CCOC(=O)c1cnn(CCOC(=O)c2cccc(F)c2)c1NC(=O)c1cccc(F)c1,"inconclusive [inhibitor, single point]",
COc1ccc(C(CNC(=O)COc2ccc(F)cc2Br)N2CCCC2)cc1 (configuration not stated),"inconclusive [inhibitor, single point]",
O=C(N/N=C/C=C/c1ccco1)c1ccncc1,"inconclusive [inhibitor, single point]",
Nc1nc2ncc(C(=O)c3cc(Cl)cc(Cl)c3O)cc2s1,,inactive: 0.0587%
COc1cccc2c(C)nc(Nc3nc(CSc4nnc(C)s4)cc(=O)[nH]3)nc12,"inconclusive [inhibitor, single point]",
O=C(NC(=S)Nc1cccnc1)c1cccc(Br)c1,"inconclusive [inhibitor, single point]",
Cc1cc(NC(=O)Nc2cccc(Cl)c2)n(-c2ccccc2)n1,,inactive: 1.06%
CN(C)S(=O)(=O)c1cccc(C(=O)Nc2ccc3c(c2)CCC3)c1,,inactive: 1.42%
COc1ccc(/C=C/C(=O)NC(=S)NNC(=O)c2c(-c3ccccc3)noc2C)cc1,active: 5.01 µM,
O=C(Cn1c(=O)oc2ccccc21)NCCc1ccccc1,,inactive: -2.45%
c1ccc(CCn2c(SCc3ccccc3)nnc2-c2ccncc2)cc1,"inconclusive [inhibitor, single point]",
Cc1ccc(C(=O)CN2/C(=C(\O)c3ccccc3)C(=O)c3ccccc3S2(=O)=O)c(C)c1,"inconclusive [inhibitor, single point]",
Cc1ccc(/C=C\c2nccc3c2[nH]c2ccccc23)cc1,active: 3.16 µM,
CCOC(=O)COn1c(-c2cccc(Cl)c2)nc2ccc([N+](=O)[O-])cc21,,inactive: 0.291%
COc1ccc(S(=O)(=O)NCC2CCCN(Cc3ccc(OC)cc3F)C2)cc1 (configuration not stated),,inactive: -0.334%
O=C1S/C(=C\c2ccc(N3CCOCC3)o2)C(=O)N1Cc1ccc(F)cc1,active: 7.08 µM,

# Source: PubChem BioAssay AID2546 (National Center for Advancing Translational Sciences (NCATS), 2010)
